Assay results reported in the supplement of paper PMC8728848.
The list shows a part of the results.

What was measured:
Assay in all cases: glycan array binding signal (z-score within array); higher = stronger binding
Details in all cases: glycan notation: IUPAC condensed, linker removed
[1] = molecular target: Man(a1-3)[Man(a1-6)]Man(a1-6)[Man(a1-2)Man(a1-3)]Man(b1-4)GlcNAc(b1-4)GlcNAc
Procedure, shortened: (§1)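 The binding signal is a Z-score computed within each array. Data were drawn from 3228 arrays in the Consortium for Functional Glycomics database, restricted to those with a known protein sequence. Scores were averaged over arrays of the same protein sequence at different concentrations or buffers, and over linkers, and negative values can be taken as non-binding.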

[2] = molecular target: Man(a1-3)[Man(a1-6)]Man(a1-6)[Man(a1-3)]Man
Procedure, shortened: as §1

[3] = molecular target: Man(a1-3)[Man(a1-6)]Man(a1-6)[Man(a1-3)]Man(b1-4)GlcNAc(b1-4)GlcNAc
Procedure, shortened: as §1

[4] = molecular target: Man(a1-3)[Man(a1-6)]Man(b1-4)GlcNAc(b1-4)GlcNAc
Procedure, shortened: as §1

[5] = molecular target: Man(a1-3)[Man(a1-6)]Man(b1-4)GlcNAc(b1-4)[Fuc(a1-6)]GlcNAc
Procedure, shortened: as §1

[6] = molecular target: Man(a1-6)Man
Procedure, shortened: as §1

[7] = molecular target: Man(b1-4)GlcNAc
Procedure, shortened: as §1

[8] = molecular target: MurNAc(b1-4)GlcNAc
Procedure, shortened: as §1

[9] = molecular target: Neu5Ac(a2-3)Gal
Procedure, shortened: as §1

[10] = molecular target: Neu5Ac(a2-3)Gal(b1-3)GalNAc
Procedure, shortened: as §1

[11] = molecular target: Neu5Ac(a2-3)Gal(b1-3)GalNAc(b1-3)Gal(a1-4)Gal(b1-4)Glc
Procedure, shortened: as §1

[12] = molecular target: Neu5Ac(a2-3)Gal(b1-3)GalNAc(b1-4)Gal(b1-4)Glc
Procedure, shortened: as §1

[13] = molecular target: Neu5Ac(a2-3)Gal(b1-3)GalNAc(b1-4)[Neu5Ac(a2-3)]Gal(b1-4)Glc
Procedure, shortened: as §1

[14] = molecular target: Neu5Ac(a2-3)Gal(b1-3)GalNAc(b1-4)[Neu5Ac(a2-8)Neu5Ac(a2-3)]Gal(b1-4)Glc
Procedure, shortened: as §1

[15] = molecular target: Neu5Ac(a2-3)Gal(b1-3)GalNAc6S
Procedure, shortened: as §1

[16] = molecular target: Neu5Ac(a2-3)Gal(b1-3)GlcNAc
Procedure, shortened: as §1

[17] = molecular target: Neu5Ac(a2-3)Gal(b1-3)GlcNAc(b1-2)Man
Procedure, shortened: as §1

[18] = molecular target: Neu5Ac(a2-3)Gal(b1-3)GlcNAc(b1-2)Man(a1-3)[GlcNAc(b1-4)][Neu5Ac(a2-3)Gal(b1-3)GlcNAc(b1-2)Man(a1-6)]Man(b1-4)GlcNAc(b1-4)GlcNAc
Procedure, shortened: as §1

[19] = molecular target: Neu5Ac(a2-3)Gal(b1-3)GlcNAc(b1-2)Man(a1-3)[Neu5Ac(a2-3)Gal(b1-3)GlcNAc(b1-2)Man(a1-6)]Man(b1-4)GlcNAc(b1-4)GlcNAc
Procedure, shortened: as §1

[20] = molecular target: Neu5Ac(a2-3)Gal(b1-3)GlcNAc(b1-2)[Neu5Ac(a2-3)Gal(b1-3)GlcNAc(b1-4)]Man(a1-6)[Neu5Ac(a2-3)Gal(b1-3)GlcNAc(b1-2)Man(a1-3)]Man(b1-4)GlcNAc(b1-4)GlcNAc
Procedure, shortened: as §1

[21] = molecular target: Neu5Ac(a2-3)Gal(b1-3)GlcNAc(b1-3)Gal(b1-3)GlcNAc
Procedure, shortened: as §1

[22] = molecular target: Neu5Ac(a2-3)Gal(b1-3)GlcNAc(b1-3)Gal(b1-4)GlcNAc
Procedure, shortened: as §1

[23] = molecular target: Neu5Ac(a2-3)Gal(b1-3)GlcNAc(b1-3)GalNAc
Procedure, shortened: as §1

[24] = molecular target: Neu5Ac(a2-3)Gal(b1-3)GlcNAc(b1-6)GalNAc
Procedure, shortened: as §1

[25] = molecular target: Neu5Ac(a2-3)Gal(b1-3)GlcNAc6S
Procedure, shortened: as §1

[26] = molecular target: Neu5Ac(a2-3)Gal(b1-3)[Fuc(a1-4)]GlcNAc
Procedure, shortened: as §1

[27] = molecular target: Neu5Ac(a2-3)Gal(b1-3)[Fuc(a1-4)]GlcNAc(b1-3)Gal(b1-3)[Fuc(a1-4)]GlcNAc
Procedure, shortened: as §1

[28] = molecular target: Neu5Ac(a2-3)Gal(b1-3)[Fuc(a1-4)]GlcNAc(b1-3)Gal(b1-4)[Fuc(a1-3)]GlcNAc
Procedure, shortened: as §1

[29] = molecular target: Neu5Ac(a2-3)Gal(b1-3)[GlcNAc(b1-6)]GalNAc
Procedure, shortened: as §1

[30] = molecular target: Neu5Ac(a2-3)Gal(b1-3)[Neu5Ac(a2-6)]GalNAc
Procedure, shortened: as §1

[31] = molecular target: Neu5Ac(a2-3)Gal(b1-3)[Neu5Ac(a2-6)]GlcNAc(b1-3)[Fuc(a1-3)[Gal(b1-4)]GlcNAc(b1-6)]Gal(b1-4)Glc
Procedure, shortened: as §1

[32] = molecular target: Neu5Ac(a2-3)Gal(b1-3)]Neu5Ac(a2-3)Gal(b1-4)]GlcNAc
Procedure, shortened: as §1

[33] = molecular target: Neu5Ac(a2-3)Gal(b1-4)Glc
Procedure, shortened: as §1

[34] = molecular target: Neu5Ac(a2-3)Gal(b1-4)GlcNAc
Procedure, shortened: as §1

[35] = molecular target: Neu5Ac(a2-3)Gal(b1-4)GlcNAc(b1-2)Man
Procedure, shortened: as §1

[36] = molecular target: Neu5Ac(a2-3)Gal(b1-4)GlcNAc(b1-2)Man(a1-3)[GlcNAc(b1-4)][Neu5Ac(a2-3)Gal(b1-4)GlcNAc(b1-2)Man(a1-6)]Man(b1-4)GlcNAc(b1-4)GlcNAc
Procedure, shortened: as §1

[37] = molecular target: Neu5Ac(a2-3)Gal(b1-4)GlcNAc(b1-2)Man(a1-3)[Neu5Ac(a2-3)Gal(b1-4)GlcNAc(b1-2)Man(a1-6)]Man(b1-4)GlcNAc(b1-4)GlcNAc
Procedure, shortened: as §1

[38] = molecular target: Neu5Ac(a2-3)Gal(b1-4)GlcNAc(b1-2)Man(a1-3)[Neu5Ac(a2-3)Gal(b1-4)GlcNAc(b1-2)Man(a1-6)]Man(b1-4)GlcNAc(b1-4)[Fuc(a1-6)]GlcNAc
Procedure, shortened: as §1

B1: Sebin1 (Coprinopsis cinerea), A8PEE3 (protein)
chain: MTSPFYAHIHNVQDDNTWRFTLIFANRATADEWWRAISEAPANTSIAKSITRVTPQYYTHDVNIWNIWNFFADGNIKSISERFRGRLFIVLENDRGGRGITVIPPVPIVDHVSGNWFYIRSKTAPHLFWYYDERRSSIYASKEKRTRFKISIRNPSSQTPKNAIMINTDDVTIHIKENLYVGVDNNLGHIIPTRAYRTFKFGELESGAIAGFDVVENIEERCSSTFDGASLSISGPDSSSPGEPWELV
glycan array binding signal (z-score) [1]: 0.008 | glycan array binding signal (z-score) [2]: -0.935 | glycan array binding signal (z-score) [3]: 0.211 | glycan array binding signal (z-score) [4]: -0.029 | glycan array binding signal (z-score) [5]: -0.075 | glycan array binding signal (z-score) [6]: -0.093 | glycan array binding signal (z-score) [7]: -0.49 | glycan array binding signal (z-score) [8]: -0.492 | glycan array binding signal (z-score) [9]: -0.637 | glycan array binding signal (z-score) [10]: 2.37 | glycan array binding signal (z-score) [11]: -0.384 | glycan array binding signal (z-score) [12]: -0.297 | glycan array binding signal (z-score) [13]: -0.154 | glycan array binding signal (z-score) [14]: -0.281 | glycan array binding signal (z-score) [15]: -0.573 | glycan array binding signal (z-score) [16]: -0.465 | glycan array binding signal (z-score) [17]: -0.255 | glycan array binding signal (z-score) [18]: 0.037 | glycan array binding signal (z-score) [19]: -0.405 | glycan array binding signal (z-score) [20]: -0.386 | glycan array binding signal (z-score) [21]: -0.585 | glycan array binding signal (z-score) [22]: 0 | glycan array binding signal (z-score) [23]: 0.3 | glycan array binding signal (z-score) [24]: -0.335 | glycan array binding signal (z-score) [25]: -0.146 | glycan array binding signal (z-score) [26]: -0.733 | glycan array binding signal (z-score) [27]: 0.376 | glycan array binding signal (z-score) [28]: -0.358 | glycan array binding signal (z-score) [29]: -0.264 | glycan array binding signal (z-score) [30]: -0.336 | glycan array binding signal (z-score) [31]: -0.727 | glycan array binding signal (z-score) [32]: -0.267 | glycan array binding signal (z-score) [33]: 3.86 | glycan array binding signal (z-score) [34]: -0.825 | glycan array binding signal (z-score) [35]: 1.15 | glycan array binding signal (z-score) [36]: -0.182 | glycan array binding signal (z-score) [37]: -0.723 | glycan array binding signal (z-score) [38]: -0.34
